Measurements reported in the supplement of paper PMC2702839.
Structures can show the parent of a compound that is named as a salt. This is one part of the list.

What follows are molecules tested on Schistosoma mansoni schistosomula (assay: phenotypic hit in primary schistosomula screen (any phenotype vs DMSO control) (binary (1 = hit, 0 = no phenotype)); higher = active (phenotype induced)). Conditions: 1 µM; time (d): 7.

Phenotypic hit, active:
C#CCCCCCCCCCCCC(O)CC(O)CO.C=CCCCCCCCCCCCC(O)CC(O)CO (centres undefined) [avocatin b] 1
O=C(N[C@@H](Cc1c[nH]c2ccccc12)C(=O)O)c1ccc(Cl)cc1 [Benzotript] 1
CN1[C@@H]2CC[C@H]1C[C@@H](OC(c1ccccc1)c1ccccc1)C2 [Benztropine mesylate] 1
CC(=O)/N=c1/sc(S(N)(=O)=O)nn1C [methazolamide] 1
Cc1c2oc3c(C)ccc(C(=O)N[C@@H]4C(=O)N[C@H](C(C)C)C(=O)N5CCC[C@H]5C(=O)N(C)CC(=O)N(C)[C@@H](C(C)C)C(=O)O[C@@H]4C)c3nc-2c(C(=O)N[C@@H]2C(=O)N[C@H](C(C)C)C(=O)N3CCC[C@H]3C(=O)N(C)CC(=O)N(C)[C@@H](C(C)C)C(=O)O[C@@H]2C)c(N)c1=O [dactinomycin] 1

Phenotypic hit, inactive:
C[C@H](N)C(=O)NC(Cc1ccccc1)C(=O)O (mixture of isomers) [alanyl-dl-phenylalanine] 0
O=c1c(O)c(-c2ccc(O)c(O)c2)oc2cc(O)ccc12 [fisetin] 0
NS(=O)(=O)c1cc2c(cc1Cl)N=CNS2(=O)=O [Chlorothiazide] 0
CCOC(=O)[C@H](CCc1ccccc1)N[C@@H](C)C(=O)N1[C@H](C(=O)O)C[C@@H]2CCC[C@@H]21 [ramipril] 0
CCOc1ccc2c(c1)C(C)=CC(C)(C)N2 [ethoxyquin] 0
CCC(CCC(C)C1CCC2C3CCC4CC(O)CCC4(C)C3CCC12C)C(C)C (centres undefined) [fucostanol] 0
CC(C)COCC(CN(Cc1ccccc1)c1ccccc1)N1CCCC1 (centres undefined) [Bepridil hydrochloride] 0
C=NC(C(=O)NC1C(=O)N2C1SC(C)(C)C2C(=O)O)c1ccccc1 (centres undefined) [metampicillin sodium] 0
Cn1c(=O)c2[nH]c(C3CCCC3)nc2n(C)c1=O [8-Cyclopentyl-1,3-dimethylxanthine] 0
CC1=CC2C(C(C)C)CCC(C)(O)C2CC1 (centres undefined) [cadin-4-en-10-ol] 0
NS(=O)(=O)c1cc(C(=O)O)c(NCc2ccco2)cc1Cl [furosemide] 0
COc1ccc2ccc(=O)oc2c1 [herniarin] 0
CC(=O)CC(=O)CCC(=O)O [succinylacetone] 0
CC(=O)Oc1cc(C)c2c(c1C(OC(C)=O)OC(C)=O)Oc1c(c(C)c(OC(C)=O)c3c1C(OC(C)=O)OC3=O)OC2=O (centres undefined) [norstictic acid pentaacetate] 0
Cc1cc(C2CCCCC2)n(O)c(=O)c1 [ciclopirox olamine] 0
O=C(O)c1cc2cc(Cl)ccc2[nH]1 [5-chloroindole-2-carboxylic acid] 0
COc1cccc(OC)c1OCCNCC1COc2ccccc2O1 (centres undefined) [WB-4101 hydrochloride] 0
CC(C)(O)[C@H]1CC[C@]2(C)[C@H]3CC[C@@H]4[C@@]5(C)CCCC(C)(C)[C@@H]5[C@@H](O)C[C@@]4(C)[C@]3(C)CC[C@@H]12 [zeorin] 0
CCC1(O)CC(OC2CC(N(C)C)C(OC3CC(O)C(OC4CCC(=O)C(C)O4)C(C)O3)C(C)O2)c2c(cc3c(c2O)C(=O)c2c(O)cccc2C3=O)C1C(=O)OC (centres undefined) [aclacinomycin a1] 0
NC1(C(=O)O)CCC1 [1-aminocyclobutane carboxylic acid] 0
CC(=O)O[C@H]1CC[C@]2(C)C(C[C@@H](OC(C)=O)[C@]3(C)C4=CC(=O)O[C@H](c5ccoc5)[C@@]4(C)CCC23)C1(C)C (stereo partly drawn) [3-deoxo-3beta-acetoxydeoxydihydrogedunin] 0
N=C(N)NC(=O)c1nc(Cl)c(N)nc1N [Amiloride hydrochloride] 0
CCCCOC(=O)c1ccc(N)cc1 [butamben] 0
CC[C@H]1OC(=O)[C@H](C)[C@@H](O[C@H]2C[C@@](C)(OC)[C@@H](O)[C@H](C)O2)[C@H](C)[C@@H](O[C@@H]2O[C@H](C)C[C@H](N(C)C)[C@H]2O)[C@](C)(OC)C[C@@H](C)C(=O)[C@H](C)[C@@H](O)[C@]1(C)O [clarithromycin] 0
CCCCC1=NC2(CCCC2)C(=O)N1Cc1ccc(-c2ccccc2-c2nnn[nH]2)cc1 [irbesartan] 0
COc1cc2c(cc1OC)Cc1cc(OC)c(OC)cc1Cc1cc(OC)c(OC)cc1C2 [cycloveratrylene] 0
C[C@@H]1O[C@@H](O[C@H]2[C@H](Oc3cc(O)c4c(c3)O[C@H](c3ccc(O)cc3)CC4=O)O[C@H](CO)[C@@H](O)[C@@H]2O)[C@H](O)[C@H](O)[C@H]1O [naringin] 0
CC(=O)OCC(=O)[C@@]12OC3(CCCC3)O[C@@H]1C[C@H]1[C@@H]3CCC4=CC(=O)C=C[C@]4(C)[C@@]3(F)[C@@H](O)C[C@@]12C [amcinonide] 0
C#CC1(O)CC[C@H]2[C@@H]3CCC4=CC(=O)CC[C@@H]4[C@H]3CC[C@@]21CC (mixture of isomers) [norgestrel] 0
CCCC(=O)Nc1ccc(OCC(O)CNC(C)C)c(C(C)=O)c1 (centres undefined) [acebutolol hydrochloride] 0
C[C@@H]1O[C@@H](OC[C@H]2O[C@@H](Oc3c(-c4ccc(O)c(O)c4)oc4cc(O)cc(O)c4c3=O)[C@H](O)[C@@H](O)[C@@H]2O)[C@H](O)[C@H](O)[C@H]1O [rutoside  (rutin)] 0
CC(=O)Nc1ccc(OCC(O)CNC(C)C)cc1 (centres undefined) [practolol] 0
C[C@H](CCC(=O)O)[C@H]1CC[C@H]2[C@@H]3C[C@H](O)[C@@H]4C[C@H](O)CC[C@]4(C)[C@H]3CC[C@]12C [alpha-hyodeoxycholic acid] 0
COc1c(O)cc(O)cc1O [iretol] 0
CCCCC[C@@H](O)[C@H]1C(=O)O[C@H](C)[C@@H](O)/C=C/C=C/C=C/C=C/C=C(\C)[C@@H](O)C[C@H](O)C[C@H](O)C[C@H](O)C[C@H](O)C[C@H](O)C[C@@H]1O [filipin] 0
O=C(O)/C=C/C=C/c1ccccc1 [juarezic acid] 0
CCCCC1C(=O)N(c2ccccc2)N(c2ccccc2)C1=O [Phenylbutazone] 0
COc1ccccc1-c1cc(=O)c2cccc(OC)c2o1 [8,2'-dimethoxyflavone] 0
C#C[C@]1(OC(C)=O)CC[C@H]2[C@@H]3CCC4=CC(=O)CC[C@@H]4[C@H]3CC[C@@]21C [norethindrone acetate] 0
CC1=CC(=O)c2ccccc2C1=O [menadione] 0
CC(Cc1ccc(O)c(O)c1)C(C)Cc1ccc(O)c(O)c1 (centres undefined) [nordihydroguaretic acid] 0
CC(C)=CCC/C(C)=C\CO [nerol] 0
COc1cc(C(C)=O)cc(OC)c1O [acetosyringone] 0
Cc1ccc(C(=O)C(C)CN2CCCCC2)cc1 (centres undefined) [tolperisone hydrochloride] 0
CCC(=O)c1ccc2c(c1)N(CC(C)N(C)C)c1ccccc1S2 (centres undefined) [propiomazine maleate] 0
O=C(CCCCC(=O)Nc1c(I)cc(I)c(C(=O)O)c1I)Nc1c(I)cc(I)c(C(=O)O)c1I [iodipamide] 0
CC(C)(C)NCC(O)COc1cccc2c1CC(O)C(O)C2 (centres undefined) [nadolol] 0
Cc1cc(O)cc(O)c1C(=O)O [orsellinic acid] 0
CCC(C)C(=O)OC1[C@@H]2CC3=C4CC(=O)O[C@@H](c5ccoc5)[C@]4(C)CCC3[C@@](C)(C2=O)[C@@H](CC(=O)OC)C1(C)C (some centres undefined) [khayasin] 0
CC1=C(C(=O)O)N2C(=O)[C@@H](NC(=O)[C@H](N)c3ccccc3)[C@H]2SC1 [cephalexin] 0
O=C1C(O)=C(O)C(=O)C(O)=C1O [tetroquinone] 0
COc1ccc2c(c1)c(CC(=O)OCC(=O)O)c(C)n2C(=O)c1ccc(Cl)cc1 [acemetacin] 0
COc1ccc2c(c1)OC[C@@H](Cc1ccc(OC)c(OC)c1)[C@@H]2O [3-deshydroxysappanol trimethyl ether] 0
COc1c(Cl)c(C)c2c(c1Cl)OC(=O)c1c(C)c(Cl)c(OC)c(Cl)c1O2 [diploicin methyl ether] 0
COc1ccc2cc3[n+](cc2c1OC)CCc1cc2c(cc1-3)OCO2 [berberine chloride] 0
COc1ccc2c(c1)CC[C@@H]1[C@@H]2CC[C@]2(C)[C@@H](O)[C@H](O)C[C@@H]12 [estriol methyl ether] 0
CC1(C)C2CC(=O)[C@]3(C)C(CC[C@@]4(C)[C@H](c5ccoc5)OC(=O)C5OC543)[C@@]2(C)C(=O)[C@H]2O[C@H]21 (stereo partly drawn) [epoxy (2,3alpha)-7-deacetoxy-7-oxodihydroisogedunin] 0
CC(C)=CC1C(C(=O)O)C1(C)C (centres undefined) [chrysanthemic acid] 0
COC(=O)C[C@H]1C(C)(C)C(=O)[C@@H]2CC3C4=CC(=O)O[C@@H](c5ccoc5)[C@]4(C)CC[C@@H]3[C@@]1(C)C2=O (some centres undefined) [carapin] 0
